pIC50: −log10 of the molar value. A lower IC50 marks a more sensitive line; where the fit passes the top or lowest dose, that dose stands as a limit. For AUC the same curve is integrated over the 256-fold range of doses and scaled to a fraction; it is 1 without any effect and falls as sensitivity rises. For some assays here: Any top dose called inferred comes from the curve model; the source does not state it. For some assays here: Drugs with an entry number were screened twice under separate entries, and the two screens often disagree.
Key:
Experiment in all cases: Viability of human cancer cell lines after 72 h of drug (GDSC screen)
AZD6244 = compound: Cn1cnc2c(F)c(Nc3ccc(Br)cc3Cl)c(C(=O)NOCCO)cc21 [AZD6244]; conditions: top dose 4 µM; screen: GDSC drug entry 1498; top dose inferred
Description: (§1)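 Human cancer cell lines in 384-well plates, medium with 10% serum, drug for 72 h over a 256-fold dose range (nine 2-fold or five 4-fold steps up to the top dose). Adherent lines were fixed and stained with the nucleic acid dye Syto60, suspension lines read with resazurin; signal relative to control wells, capped at 0 and 100%. One two-parameter sigmoid per drug and line, fitted in a mixed model over all curves with the slope shared within a line.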

AS601245 = compound: N#CC(c1ccnc(NCCc2cccnc2)n1)c1nc2ccccc2s1 [AS601245]; conditions: top dose 8 µM; top dose inferred
Description: as §1

EX-527 = compound: NC(=O)C1CCCc2c1[nH]c1ccc(Cl)cc21 [EX-527]; conditions: top dose 20 µM
Description: as §1

YM201636 = compound: Nc1ccc(C(=O)Nc2cccc(-c3nc(N4CCOCC4)c4oc5ncccc5c4n3)c2)cn1 [YM201636]; conditions: top dose 5.12 µM; top dose inferred
Description: as §1

Cell Line | AUC (AZD6244) | pIC50 (AZD6244) | AUC (AS601245) | pIC50 (AS601245) | AUC (EX-527) | pIC50 (EX-527) | AUC (YM201636) | pIC50 (YM201636)
NCI-H1792 (lung adenocarcinoma, adherent) | 0.759 | 5.90 | 0.915 | < 5.10 | 0.99 | < 4.70 | 0.918 | < 5.29
NCI-H1793 (lung adenocarcinoma, adherent) | 0.88 | < 5.40 | 0.895 | < 5.10 | 0.981 | < 4.70 | 0.968 | < 5.29
NCI-H1915 (large cell lung carcinoma, adherent) | 0.61 | 6.30 | 0.835 | 5.27 | 0.986 | < 4.70 | 0.958 | < 5.29
NCI-H1944 (lung adenocarcinoma, adherent) | 0.599 | 6.32 | 0.787 | 5.43 | 0.984 | < 4.70 | 0.805 | 5.55
NCI-H1993 (lung adenocarcinoma, adherent) | 0.924 | < 5.40 | 0.978 | < 5.10 | 0.983 | < 4.70 | 0.847 | < 5.29
NCI-H2009 (lung adenocarcinoma, adherent) | 0.829 | 5.57 | 0.857 | 5.15 | 0.976 | < 4.70 | 0.944 | < 5.29
NCI-H2029 (small cell lung carcinoma, adherent) | 0.99 | < 5.40 | 0.983 | < 5.10 | 0.989 | < 4.70 | 0.965 | < 5.29
NCI-H2030 (lung adenocarcinoma, adherent) | 0.678 | 6.07 | 0.802 | 5.34 | 0.982 | < 4.70 | 0.78 | 5.62
NCI-H2085 (lung adenocarcinoma, adherent) | 0.917 | < 5.40 | 0.859 | 5.12 | 0.967 | < 4.70 | 0.884 | < 5.29
NCI-H2087 (lung adenocarcinoma, semi-adherent) | 0.66 | 6.14 | 0.807 | 5.35 | 0.965 | < 4.70 | 0.936 | < 5.29
NCI-H2110 (non-small cell lung carcinoma, adherent) | 0.897 | < 5.40 | 0.978 | < 5.10 | 0.986 | < 4.70 | 0.69 | 5.95
NCI-H2122 (lung adenocarcinoma, adherent) | 0.787 | 5.79 | 0.543 | 6.19 | 0.975 | < 4.70 | 0.945 | < 5.29
NCI-H2170 (lung squamous cell carcinoma, adherent) | 0.985 | < 5.40 | 0.772 | 5.49 | 0.986 | < 4.70 | 0.96 | < 5.29
NCI-H2172 (non-small cell lung carcinoma, adherent) | 0.968 | < 5.40 | 0.696 | 5.66 | 0.972 | < 4.70 | 0.757 | 5.63
NCI-H2228 (lung adenocarcinoma, adherent) | 0.89 | < 5.40 | 0.735 | 5.47 | 0.977 | < 4.70 | 0.819 | < 5.29
NCI-H2291 (lung adenocarcinoma, adherent) | 0.48 | 6.67 | 0.984 | < 5.10 | 0.976 | < 4.70 | 0.983 | < 5.29
NCI-H2342 (lung adenocarcinoma, adherent) | 0.975 | < 5.40 | 0.76 | 5.51 | 0.984 | < 4.70 | 0.974 | < 5.29
NCI-H2347 (lung adenocarcinoma, adherent) | 0.57 | 6.39 | 0.876 | < 5.10 | 0.978 | < 4.70 | 0.915 | < 5.29
NCI-H2405 (lung adenocarcinoma, adherent) | 0.859 | 5.41 | 0.803 | 5.35 | 0.985 | < 4.70 | 0.957 | < 5.29
NCI-H2444 (non-small cell lung carcinoma, adherent) | 0.929 | < 5.40 | 0.923 | < 5.10 | 0.988 | < 4.70 | 0.974 | < 5.29
NCI-H2452 (mesothelioma, adherent) | 0.816 | 5.56 | 0.977 | < 5.10 | 0.984 | < 4.70 | 0.973 | < 5.29
NCI-H3122 (lung adenocarcinoma, adherent) | 0.946 | < 5.40 | 0.728 | 5.64 | 0.983 | < 4.70 | 0.941 | < 5.29
NUGC-3 (stomach, adherent) | 0.767 | 5.78 | 0.889 | < 5.10 | 0.984 | < 4.70 | 0.948 | < 5.29
NUGC-4 (stomach, adherent) | 0.323 | 7.10 | 0.665 | 5.84 | 0.983 | < 4.70 | 0.783 | 5.67
NY (osteosarcoma, adherent) | 0.985 | < 5.40 | 0.776 | 5.50 | 0.987 | < 4.70 | 0.984 | < 5.29
OAW-28 (ovary, adherent) | 0.863 | < 5.40 | 0.891 | < 5.10 | 0.983 | < 4.70 | 0.866 | < 5.29
OAW-42 (ovary, adherent) | 0.834 | 5.54 | 0.741 | 5.58 | 0.971 | < 4.70 | 0.975 | < 5.29
OCUM-1 (stomach, adherent) | 0.217 | 7.48 | 0.828 | 5.24 | 0.981 | < 4.70 | 0.987 | < 5.29

Source: the supplement of paper PMC4967469
